The supplement of paper PMC11876631
Positions count from the first letter of the chain named. Names and notes keep the numbering of the source. ± gives the standard deviation of the averaged measurements. Laboratory Escherichia coli strains with one amino-acid change in an essential protein, pooled on minimal glucose agar with carbenicillin or gentamicin at twice the control MIC (plus kanamycin and chloramphenicol for the plasmids), 48 h. Fold change of barcode share against drug-free plates; higher = less susceptible. Active = above 20 in both replicates (the paper's putatively resistant). '<' = one read or none on drug, '>' = one read or none on a drug-free plate. Shares are relative, so most strains fall below 1 when a few take over. Listed are strains with at least 15 reads on both drug-free plates, and hits; most hits rest on fewer reference reads. Replicate rank correlation about 0.5. Edits are read from barcodes.

B1: argG L45Q (protein)
chain: MTTILKHLPVGQRIGIAFSGGLDTSAALLWMRQKGAVPYAYTANQGQPDEEDYDAIPRRAMEYGAENARLIDCRKQLVAEGIAAIQCGAFHNTTGGLTYFNTTPLGRAVTGTMLVAAMKEDGVNIWGDGSTYKGNDIERFYRYGLLTNAELQIYKPWLDTDFIDELGGRHEMSEFMIACGFDYKMSVEKAYSTDSNMLGATHEAKDLEYLNSSVKIVNPIMGVKFWDESVKIPAEEVTVRFEQGHPVALNGKTFSDDVEMMLEANRIGGRHGLGMSDQIENRIIEAKSRGIYEAPGMALLHIAYERLLTGIHNEDTIEQYHAHGRQLGRLLYQGRWFDSQALMLRDSLQRWVASQITGEVTLELRRGNDYSILNTVSENLTYKPERLTMEKGDSVFSPDDRIGQLTMRNLDITDTREKLFGYAKTGLLSSSAASGVPQVENLENKGQ
B2: hemD V182P (protein)
chain: MSILVTRPSPAGEELVSRLRTLGQVAWHFPLIEFSPGQQLPQLADQLAALGESDLLFALSQHAVAFAQSQLHQQDRKWPRLPDYFAIGRTTALALHTVSGQKILYPQDREISEVLLQLPELQNIAGKRALILRGNGGRELIGDTLTARGAEVTFCECYQRCAIHYDGAEEAMRWQAREVTMPVVTSGEMLQQLWSLIPQWYREHWLLHCRLLVVSERLAKLARELGWQDIKVADNADNDALLRALQ
B3: hemD V183W (protein)
chain: B2 chain with P182V, V183W
B4: hemD L212A (protein)
chain: B2 chain with P182V, L212A
B5: hemD V183D (protein)
chain: B2 chain with P182V, V183D
B6: hemD V183P (protein)
chain: B2 chain with P182V, V183P
B7: hemD V183Q (protein)
chain: B2 chain with P182V, V183Q
B8: hemD V183A (protein)
chain: B2 chain with P182V, V183A

Biological target: Escherichia coli (laboratory strain)
Experiment: barcode share on antibiotic plates over drug-free plates; higher = less susceptible
Conditions: antibiotic: carbenicillin; 2× MIC (3.1 µg/mL)
Description: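 A pool of E. coli strains, each edited to carry one amino-acid change in an essential protein, was grown for 48 h on minimal glucose agar with or without antibiotic; strain barcodes were sequenced; mean of two replicates.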

Row | Protein | fold change of barcode share
1 | B1 | 0.1594 ± 0.00083
2 | B2 | 1.92 ± 0.93
3 | B3 | 0.429 ± 0.11
4 | B4 | 0.397 ± 0.0077
5 | B5 | 0.965 ± 0.099
6 | B6 | 1.08 ± 0.15
7 | B7 | 1.01 ± 0.61
8 | B8 | 0.38 ± 0.27

Same assay, conditions: antibiotic: gentamicin; 2× MIC (MIC 0.45 µg/mL)

Row | Protein | fold change of barcode share
9 | B1 | 0.0127 ± 0.0019
10 | B2 | 128 [active]
11 | B3 | 0.00806 ± 0.0027
12 | B4 | 0.0519 ± 0.068
13 | B5 | < 0.00804
14 | B6 | 0.546 ± 0.56
15 | B7 | 0.00459 ± 0.00099
16 | B8 | 0.00541 ± 0.0009
